Laboratory results: PubChem BioAssay AID504832 (National Center for Advancing Translational Sciences (NCATS), 2011)
“And” between values parts separate entries of the source, which are not always exact repeats. Equal values may be shown once. The whole screen tested about 310,000 compounds, of which about 18,000 (5.8%) were called active. The shares of active, inactive and inconclusive entries below differ from those in the screen. The call rests on the fitted dose curve; in most records, active means well fitted inhibition curve with a large enough effect; inconclusive means small, poorly fitted or top-dose-only effect, or another doubt; inactive means no such curve, though single readings can be large or run the other way. Potencies of inconclusive entries are left out as doubtful fits.

Experiment: Primary qHTS for delayed death inhibitors of the malarial parasite plastid, 48 hour incubation
Conditions: P. falciparum luciferase growth in erythrocytes; series mostly up to 28.7 µM
In short: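 Here the parasites carry a stable luciferase gene and grow inside erythrocytes in Albumax-based RPMI medium with compound for one erythrocytic cycle. Activity is scored as loss of luminescent signal.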
Potency means the concentration at half of the fitted maximal effect; tags describe the fitted curve by direction and shape.

| Structure (SMILES) | Potency |
| --- | --- |
| CC(C)CN1CCN(Cc2cc3ccccc3[nH]2)CC1CCO (stereo not drawn) | inconclusive [inhibitor, single point] |
| CC(C)CC1NC(=O)N(CC(=O)N2CCN(S(=O)(=O)c3ccccc3)CC2)C1=O (stereo not drawn) | inactive |
| C=CCNS(=O)(=O)c1ccc(OCC(=O)OCC)cc1 | inactive |
| COC(=O)CN1C(=O)C2(C(C#N)=C(N)Oc3c2c(C)nn3-c2ccccc2)c2ccccc21 (stereo not drawn) | inconclusive [inhibitor, single point] |
| COc1ccc(C(=O)/C=C/c2ccc(N(C)C)cc2)c(OC)c1 | inconclusive [inhibitor, partial curve, poor fit] |
| Cc1ccc(C2/C(=C(\O)c3cnn(-c4ccccc4)c3C)C(=O)C(=O)N2CCN(C)C)o1 (stereo not drawn) | inconclusive [inhibitor, single point] |
| COc1ccc(OC)c(-c2csc(NC(=O)c3ccccc3F)n2)c1 | inactive |
| Cc1ccc(Nc2nc(N)nc(CSc3nncn3C)n2)cc1 | inactive |
| O=C(NCC(=O)N1CCC2(CC1)NCCc1[nH]cnc12)c1ccc2ccccc2c1 | inactive |
| COc1ccc(OC)c(S(=O)(=O)N2CCC(C(=O)Nc3cccc(C(F)(F)F)c3)CC2)c1 | inconclusive [inhibitor, single point] |
| CC(=O)[C@@H]1[C@@H]2C(=O)N(c3ccc(F)c(Cl)c3)C(=O)[C@@H]2C2c3ccccc3C=CN21 (stereo partly drawn) | inconclusive [inhibitor, full curve, poor fit] |
| COc1ccc(C)cc1N(C(=O)c1ccco1)C(C(=O)NC1CCCC1)c1cc(OC)c(OC)c(OC)c1 (stereo not drawn) | inconclusive [inhibitor, partial curve, poor fit] |
| Cc1ccccc1Nc1nnc(-c2ccc(C(=O)NCCO)cc2)c2ccccc12 | inactive |
| Cc1ccc(S(=O)(=O)N(C)c2ccccc2C(=O)N2CCOCC2)cc1 | inactive |
| CCCCn1c(=O)[nH]c(=O)c2c1nc(-c1ccccn1)n2CC | inactive |
| Cn1c(=O)cc(OCCCC(=O)NCCC2=CCCCC2)c2ccccc21 | inconclusive [inhibitor, single point] |
| CCCC(=O)C1=C(O)C(C(=O)OC)C(C)(C)CC1=Nc1ccncc1 (stereo not drawn) | inconclusive [inhibitor, partial curve, poor fit] |
| Cn1c2ccccc2c2cc(/C=N/NC(=O)c3ccc(N)cc3)ccc21 | active: 13.1 µM |
| CN(C)CCN1C(=O)c2oc3ccccc3c(=O)c2C1c1ccc(F)cc1 (stereo not drawn) | inconclusive [inhibitor, single point] |
| c1ccc(-c2nc(N3CCCCCC3)c3ccccc3n2)nc1 | active: 0.828 µM |
| CCC(C)c1ccccc1NC(=O)CN1CCN(C/C=C/c2ccccc2)CC1 (stereo not drawn) | inconclusive [inhibitor, partial curve, poor fit] |
| CCOc1ccc(/C=N/OCC(=O)NCc2ccco2)cc1 | inactive |
| Cc1cc(OC(=O)c2ccc(S(=O)(=O)N3CCOCC3)cc2)c([N+](=O)[O-])c(=O)[nH]1 | inactive |

| Structure (SMILES) | Potency |
| --- | --- |
| COc1ccc(S(=O)(=O)N2CCN(C(=O)c3ccc([N+](=O)[O-])o3)CC2)cc1 | inconclusive [inhibitor, partial curve] |
| CCC1Oc2ccc(C)cc2N(CC(=O)NCc2cc(OC)ccc2OC)C1=O (stereo not drawn) | inactive |
| CC(C)N=C(NC#N)SCc1ccc(Br)cc1 | inconclusive [inhibitor, partial curve] |
| CCOC(=O)c1c(NC(=O)CS(=O)(=O)c2cn(CC)c3ccccc23)sc2c1CCCC2 | inconclusive [inhibitor, single point] |
| COc1ccc(N(CC(=O)NC2CCCC2)C(=O)CCC(=O)Nc2cc(C)on2)c(OC)c1 | inconclusive [inhibitor, single point] |
| COc1ccc2cc(/C(C)=N/NC(=S)Nc3cc(S(=O)(=O)N4CCOCC4)ccc3N3CCOCC3)ccc2c1 | active: 1.47 µM |
| CCCCCOc1ccc(C(=O)OCC(=O)Nc2cc(C)on2)cc1 | inconclusive [inhibitor, partial curve, poor fit] |
| Cc1ccc(C)c(NC(=O)C(c2ccccc2)N2CCN(CC(=O)NC3CC3)CC2)c1 (stereo not drawn) | inconclusive [inhibitor, single point] |
| Cc1ccc(C(=O)O)cc1NC(=O)c1ccc(Cn2nc(C)c(Cl)c2C)o1 | inconclusive [inhibitor, partial curve, poor fit] |
| O=[N+]([O-])c1ccc2nc(-c3ccc(Cl)cc3)[nH]c2c1 | inconclusive [inhibitor, single point] |
| CC(C)(C)c1ccc(Oc2ccc(N)cc2)cc1 | inconclusive [inhibitor, partial curve, poor fit] |
| O=C(/C=C/c1ccc(Cl)cc1Cl)c1nc2ccccc2[nH]1 | inconclusive [inhibitor, partial curve, poor fit] |
| CN(CC(=O)NC1(C)CCS(=O)(=O)C1)S(=O)(=O)c1ccc(Cl)cc1 (stereo not drawn) | inconclusive [inhibitor, single point] |
| CN1C(=O)/C(=N\OC(=O)c2ccccc2Cl)c2ccccc21 | inactive |
| CCCCc1cc(=O)oc2cc(OC(C)C(=O)NCC3CCC(C(=O)O)CC3)c(Cl)cc12 (stereo not drawn) | inconclusive [inhibitor, partial curve, poor fit] |
| Cc1cc(NC(=O)COc2ccccc2)n(-c2ccccc2)n1 | inactive |
| O=C(CC1Sc2ncnn2C1=O)Nc1ccc(Br)cc1 (stereo not drawn) | inactive |
| CN1C(=O)N(CC(=O)Nc2cccc(S(=O)(=O)N(C)c3ccccc3)c2)C(=O)C12CCCCC2 | active: 14.7 µM |
| Cc1ccc(Nc2c([N+](=O)[O-])cc(C(=O)N3CC(=O)Nc4ccccc43)cc2[N+](=O)[O-])c(C)c1 | inconclusive [inhibitor, partial curve] |
| Cn1ccnc1Sc1nc(Nc2cccc(Cl)c2)nc(N2CCOCC2)n1 | active: 8.28 µM |
| Cc1ccc(OCC(=O)Nc2ccc(C)c(F)c2)c([N+](=O)[O-])n1 | inactive |
| C[C@@H]1C[C@H]2[C@@H]3C[C@H](F)C4=CC(=O)C=C[C@]4(C)[C@@]3(F)[C@@H](O)C[C@]2(C)[C@@]1(O)C(=O)COC(=O)C(C)(C)C | inconclusive [inhibitor, single point] |
| Cn1nc(C(=O)Nc2cccc(C(F)(F)F)c2)c2ccccc2c1=O | inconclusive [inhibitor, partial curve, poor fit] |

| Structure (SMILES) | Potency |
| --- | --- |
| CC(=O)c1ccc(NC(=O)C(C)Oc2ccc(N(C)S(=O)(=O)c3ccc(C)cc3)cc2)cc1 (stereo not drawn) | active: 14.7 µM |
| Nc1nc(NCc2ccccc2)nc(NCc2ccccc2)c1[N+](=O)[O-] | inconclusive [inhibitor, partial curve, poor fit] |
| CC(C)(C)Nc1nc(-c2ccccn2)nc2ccccc12 | active: 2.94 µM |
| CCCn1c(=O)c(C(=O)NCCc2ccc(OC)c(OC)c2)c(O)c2ccccc21 | inconclusive [inhibitor, single point] |
| NNC(=O)c1ccc(Cn2cc(Cl)cn2)o1 | inactive |
| CCOc1ccc(-n2cc(C(=O)NC(C)C)c3cc(OC)c(OC)cc3c2=O)cc1 | inconclusive [inhibitor, partial curve, poor fit] |
| CCCCCn1nc(C(=O)N(CC(C)C)c2c(N)n(CCCC)c(=O)[nH]c2=O)c2ccccc2c1=O | inconclusive [inhibitor, single point] |
| O=C(CN1C(=O)c2ccccc2S1(=O)=O)c1ccc2c(c1)OCCO2 | inconclusive [inhibitor, full curve, poor fit] |
| O=C(Nc1ccccc1F)Nc1ccccc1N1CCCCC1 | inconclusive [inhibitor, partial curve] |
| CN1CCc2c(sc3c2c(=O)n(-c2ccccc2)c2nncn32)C1 | inconclusive [inhibitor, partial curve, poor fit] |
| COc1cccc(-n2c(COc3ccc(C)cc3)nnc2SCC(=O)O)c1 | inactive |
| O=C(CSc1nnnn1-c1cccc2c1CCCC2)N1CCCC1 | inconclusive [inhibitor, partial curve, poor fit] |
| O=S(=O)(Nc1ccc2nc(C(F)(F)F)[nH]c2c1)c1ccccc1 | active: 11.7 µM |
| COc1ccc(-n2nc(C(=O)NCC(=O)N3CC(C)CC(C)C3)c3ccccc3c2=O)cc1OC (stereo not drawn) | active: 5.86 µM |
| CC(/C=C/c1ccc(O)cc1)=N/O | inconclusive [inhibitor, single point] |
| CCN1/C(=C/C=C/C=C/c2sc3ccccc3[n+]2CC)Sc2ccccc21 | active: 370 nM and active: 3.01 µM |
| Cc1nonc1C1CCCN1Cc1nc(-c2ccc(F)cc2F)oc1C (stereo not drawn) | inconclusive [inhibitor, partial curve] |
| O=C1CSC(=S)N1CC1CCCO1 (stereo not drawn) | inactive |
| C[C@H](NC(=O)c1nc[nH]c1C(=O)N[C@@H](C)C(=O)OC(C)(C)C)C(=O)OC(C)(C)C | active: 9.28 µM |
| O=C1C(Cc2cccc([N+](=O)[O-])c2)S/C(=N/N=C/c2ccco2)N1c1ccccc1 (stereo not drawn) | inactive |
| O=C(Oc1cc2oc(=O)cc(-c3ccccc3)c2cc1Cl)C1CCCCC1 | inconclusive [inhibitor, single point] |
| CCOc1ccc(C(C)=O)cc1NC(=O)/C=C\C(=O)O | inactive |
